Test results from the supplement of paper PMC10369915.
Some of the results follow. Cut-off read from the data, not from the text of the source: active = 3.2 or more and inactive = the rest. Most of these values are background signal.

Each binder was assayed against SHP2 C-SH2 domain E139D (assay: enrichment score (SH2-bound / input frequency) (ratio); bacterial display of known human phosphotyrosine sites (pTyr-Var adds point mutants) read by sequencing; higher = stronger binding; tyrosines were phosphorylated by kinases first). Conditions: peptide library: Human pTyr.
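Note: displayed peptides selected on beads carrying the immobilized SH2 domain, with library peptides lacking any tyrosine serving as negative controls.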

Enrichment score, inactive:
SSNAMAPYDNAVPSA [PGFRB_HUMAN_775_YA] 0.67
VSSDGHEYIYVDPMQ [PGFRB_HUMAN_579] 0.902
ERKEVSKYSDIQRSL [PGFRA_HUMAN_754] 1.31
NRAAGEVYGMIRFSG [PI4KA_HUMAN_1154_YA] 1.57
EELEEPVYEEPVAEE [ARAP3_HUMAN_1403_YA] 1.27
KGYSDEIYVVPDDSQ [ARHGAP5_HUMAN_1109] 0.926
GQQQYDIYERMVPPR [PKP4_HUMAN_372] 0.642
GEGYKKKYQQVDEEF [PGFRB_HUMAN_970] 1.45
EGRNPGFYVEANPMP [PLCG1_HUMAN_783] 0.523
TDERSWVYSPLHASA [PI51C_HUMAN_649_YA] 0.593
FGIKPDDYLYSICSE [PIP5K1B_HUMAN_105] 1.37
ERDINSLYDVSRMYV [PLCG2_HUMAN_753] 0.77
SDIQRSLYDRPASYK [PGFRA_HUMAN_762] 0.819
DAPATDIYFPTDERS [PI51C_HUMAN_639] 0.706
GQQQADIYERMVPPR [PKP4_HUMAN_372_YA] 0.601
SDGHEAIYVDPMQLP [PGFRB_HUMAN_581_YA] 0.616
TKGAASPYSVSGSGS [PLEC_HUMAN_4615_YA] 0.379
ADIESSNYMAPADNA [PGFRB_HUMAN_771_YA] 0.781

Each binder was assayed against SHP2 C-SH2 domain wild-type in the same assay as above. Conditions: peptide library: Human pTyr.

Enrichment score, inactive:
SSNAMAPYDNAVPSA [PGFRB_HUMAN_775_YA] 0.524
VSSDGHEYIYVDPMQ [PGFRB_HUMAN_579] 0.789
ERKEVSKYSDIQRSL [PGFRA_HUMAN_754] 1.48
NRAAGEVYGMIRFSG [PI4KA_HUMAN_1154_YA] 1.26
EELEEPVYEEPVAEE [ARAP3_HUMAN_1403_YA] 1.11
KGYSDEIYVVPDDSQ [ARHGAP5_HUMAN_1109] 0.967
GQQQYDIYERMVPPR [PKP4_HUMAN_372] 0.55
GEGYKKKYQQVDEEF [PGFRB_HUMAN_970] 1.28
EGRNPGFYVEANPMP [PLCG1_HUMAN_783] 0.897
TDERSWVYSPLHASA [PI51C_HUMAN_649_YA] 0.633
FGIKPDDYLYSICSE [PIP5K1B_HUMAN_105] 1.22
ERDINSLYDVSRMYV [PLCG2_HUMAN_753] 0.612
SDIQRSLYDRPASYK [PGFRA_HUMAN_762] 0.781
DAPATDIYFPTDERS [PI51C_HUMAN_639] 0.642
GQQQADIYERMVPPR [PKP4_HUMAN_372_YA] 0.557
SDGHEAIYVDPMQLP [PGFRB_HUMAN_581_YA] 0.381
TKGAASPYSVSGSGS [PLEC_HUMAN_4615_YA] 0.433
ADIESSNYMAPADNA [PGFRB_HUMAN_771_YA] 0.744

Each binder was assayed against SHP2 N-SH2 domain L43F in the same assay as above. Conditions: peptide library: Human pTyr.

Enrichment score, inactive:
SSNAMAPYDNAVPSA [PGFRB_HUMAN_775_YA] 0.547
VSSDGHEYIYVDPMQ [PGFRB_HUMAN_579] 0.64
ERKEVSKYSDIQRSL [PGFRA_HUMAN_754] 0.905
NRAAGEVYGMIRFSG [PI4KA_HUMAN_1154_YA] 1.29
EELEEPVYEEPVAEE [ARAP3_HUMAN_1403_YA] 1.07
KGYSDEIYVVPDDSQ [ARHGAP5_HUMAN_1109] 1.02
GQQQYDIYERMVPPR [PKP4_HUMAN_372] 0.576
GEGYKKKYQQVDEEF [PGFRB_HUMAN_970] 1.22
EGRNPGFYVEANPMP [PLCG1_HUMAN_783] 0.716
TDERSWVYSPLHASA [PI51C_HUMAN_649_YA] 0.701
FGIKPDDYLYSICSE [PIP5K1B_HUMAN_105] 1.12
ERDINSLYDVSRMYV [PLCG2_HUMAN_753] 0.707
SDIQRSLYDRPASYK [PGFRA_HUMAN_762] 0.851
DAPATDIYFPTDERS [PI51C_HUMAN_639] 0.647
GQQQADIYERMVPPR [PKP4_HUMAN_372_YA] 0.94
SDGHEAIYVDPMQLP [PGFRB_HUMAN_581_YA] 0.556
TKGAASPYSVSGSGS [PLEC_HUMAN_4615_YA] 0.506
ADIESSNYMAPADNA [PGFRB_HUMAN_771_YA] 0.709

What follows are binders tested against SHP2 N-SH2 domain T42A in the same assay as above. Conditions: peptide library: Human pTyr.

Enrichment score, inactive:
SSNAMAPYDNAVPSA [PGFRB_HUMAN_775_YA] 0.64
VSSDGHEYIYVDPMQ [PGFRB_HUMAN_579] 0.855
ERKEVSKYSDIQRSL [PGFRA_HUMAN_754] 0.842
NRAAGEVYGMIRFSG [PI4KA_HUMAN_1154_YA] 1.24
EELEEPVYEEPVAEE [ARAP3_HUMAN_1403_YA] 1.09
KGYSDEIYVVPDDSQ [ARHGAP5_HUMAN_1109] 0.899
GQQQYDIYERMVPPR [PKP4_HUMAN_372] 0.6
GEGYKKKYQQVDEEF [PGFRB_HUMAN_970] 1.23
EGRNPGFYVEANPMP [PLCG1_HUMAN_783] 0.616
TDERSWVYSPLHASA [PI51C_HUMAN_649_YA] 0.637
FGIKPDDYLYSICSE [PIP5K1B_HUMAN_105] 1.11
ERDINSLYDVSRMYV [PLCG2_HUMAN_753] 0.594
SDIQRSLYDRPASYK [PGFRA_HUMAN_762] 0.717
DAPATDIYFPTDERS [PI51C_HUMAN_639] 0.6
GQQQADIYERMVPPR [PKP4_HUMAN_372_YA] 0.556
SDGHEAIYVDPMQLP [PGFRB_HUMAN_581_YA] 0.507
TKGAASPYSVSGSGS [PLEC_HUMAN_4615_YA] 0.779
ADIESSNYMAPADNA [PGFRB_HUMAN_771_YA] 0.534

These binders were tested against SHP2 N-SH2 domain T52S in the same assay as above. Conditions: peptide library: Human pTyr.

Enrichment score, inactive:
SSNAMAPYDNAVPSA [PGFRB_HUMAN_775_YA] 0.529
VSSDGHEYIYVDPMQ [PGFRB_HUMAN_579] 0.696
ERKEVSKYSDIQRSL [PGFRA_HUMAN_754] 0.956
NRAAGEVYGMIRFSG [PI4KA_HUMAN_1154_YA] 1.31
EELEEPVYEEPVAEE [ARAP3_HUMAN_1403_YA] 1.2
KGYSDEIYVVPDDSQ [ARHGAP5_HUMAN_1109] 0.9
GQQQYDIYERMVPPR [PKP4_HUMAN_372] 0.679
GEGYKKKYQQVDEEF [PGFRB_HUMAN_970] 0.808
EGRNPGFYVEANPMP [PLCG1_HUMAN_783] 0.735
TDERSWVYSPLHASA [PI51C_HUMAN_649_YA] 0.772
FGIKPDDYLYSICSE [PIP5K1B_HUMAN_105] 1.38
ERDINSLYDVSRMYV [PLCG2_HUMAN_753] 0.711
SDIQRSLYDRPASYK [PGFRA_HUMAN_762] 0.833
DAPATDIYFPTDERS [PI51C_HUMAN_639] 0.728
GQQQADIYERMVPPR [PKP4_HUMAN_372_YA] 0.825
SDGHEAIYVDPMQLP [PGFRB_HUMAN_581_YA] 0.627
TKGAASPYSVSGSGS [PLEC_HUMAN_4615_YA] 0.472
ADIESSNYMAPADNA [PGFRB_HUMAN_771_YA] 0.927

What follows are binders tested against SHP2 N-SH2 domain wild-type in the same assay as above. Conditions: peptide library: Human pTyr.

Enrichment score, inactive:
SSNAMAPYDNAVPSA [PGFRB_HUMAN_775_YA] 0.485
VSSDGHEYIYVDPMQ [PGFRB_HUMAN_579] 0.616
ERKEVSKYSDIQRSL [PGFRA_HUMAN_754] 1.1
NRAAGEVYGMIRFSG [PI4KA_HUMAN_1154_YA] 1.48
EELEEPVYEEPVAEE [ARAP3_HUMAN_1403_YA] 1.45
KGYSDEIYVVPDDSQ [ARHGAP5_HUMAN_1109] 1.02
GQQQYDIYERMVPPR [PKP4_HUMAN_372] 0.582
GEGYKKKYQQVDEEF [PGFRB_HUMAN_970] 1.36
EGRNPGFYVEANPMP [PLCG1_HUMAN_783] 0.711
TDERSWVYSPLHASA [PI51C_HUMAN_649_YA] 0.67
FGIKPDDYLYSICSE [PIP5K1B_HUMAN_105] 1.16
ERDINSLYDVSRMYV [PLCG2_HUMAN_753] 0.695
SDIQRSLYDRPASYK [PGFRA_HUMAN_762] 0.784
DAPATDIYFPTDERS [PI51C_HUMAN_639] 0.721
GQQQADIYERMVPPR [PKP4_HUMAN_372_YA] 0.612
SDGHEAIYVDPMQLP [PGFRB_HUMAN_581_YA] 0.965
TKGAASPYSVSGSGS [PLEC_HUMAN_4615_YA] 0.665
ADIESSNYMAPADNA [PGFRB_HUMAN_771_YA] 0.959
